# Hit rate of the full screen: of about 150,000 compounds, about 6,500 (4.3%) were called active. Inconclusive means that the source gave no clear call. Such entries were picked first, then a sample of the others. The call rests on the fitted dose curve; in most records, active means well fitted inhibition curve with a large enough effect (not every such curve was filed as active); inconclusive means small, poorly fitted or top-dose-only effect, or another doubt; inactive means no such curve, though single readings can be large or run the other way. Potencies of inconclusive entries are left out as doubtful fits.
# Target: 15-hydroxyprostaglandin dehydrogenase [NAD(+)] (Homo sapiens) (UniProt P15428)
# Assay: qHTS Assay for Inhibitors of HPGD (15-Hydroxyprostaglandin Dehydrogenase)
# Conditions: purified HPGD, NADH fluorescence kinetic, PGE2 substrate; activity change, negative = inhibition: hits give low values
# How it was run: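 20 nM HPGD preincubated 15 min at room temperature with compound in 50 mM Tris-HCl pH 8, 0.01% Tween 20. Started with 1 mM NAD+ and 30 uM prostaglandin E2; NADH fluorescence (360/450 nm) read 5 times over 30-s intervals, last minus first.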
# On the % scale 0 is the no-effect control and ±100 the full control effect; potency means the concentration at half of the fitted maximal effect; tags describe the fitted curve by direction and shape.
# Chain of UniProt P15428 (P15428 whole entry, looked up): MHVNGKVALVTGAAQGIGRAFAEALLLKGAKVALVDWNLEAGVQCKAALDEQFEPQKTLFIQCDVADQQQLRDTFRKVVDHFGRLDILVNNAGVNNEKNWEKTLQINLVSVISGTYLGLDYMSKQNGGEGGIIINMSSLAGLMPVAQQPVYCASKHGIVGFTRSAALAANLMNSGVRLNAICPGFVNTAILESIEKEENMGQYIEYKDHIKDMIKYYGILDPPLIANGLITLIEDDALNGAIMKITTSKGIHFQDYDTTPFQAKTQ
Structure (SMILES),Potency,"activity change, negative = inhibition"
CCCC(=O)OCC(=O)Nc1cc(C(C)(C)C)nn1-c1ccccc1,"inconclusive [inhibitor, single point]",
Cc1ccc(NC(=O)C2CCCN2S(=O)(=O)c2ccc3c(c2)n(C)c(=O)c(=O)n3C)cc1C (configuration not stated),,inactive: -14.4%
Cc1cc(=O)oc(C)c1C(=O)N[C@@H]1CCCCNC1=O,,inactive: -8.24%
O=C(C1CCC1)N1CCc2cc(S(=O)(=O)NC3CCCC3)ccc21,active: 10 µM,
Cc1nc(NCCO)c2nc(-c3ccccc3)n(CCCN(C)C)c2n1,"inconclusive [inhibitor, partial curve]",
COc1ccc(S(=O)(=O)N(CC(=O)Nc2ccc3c(c2)OCO3)c2ccccc2OC)cc1,active: 15.8 µM,
O=S(=O)(c1ccccc1)N1N=C(c2cccs2)CC1c1ccc(F)cc1 (configuration not stated),,inactive: -10.2%
COc1ccc(/C=N/n2c(N)c(S(=O)(=O)c3cccs3)c3nc4ccccc4nc32)cc1OC,"inconclusive [inhibitor, partial curve]",
Cc1nn(C)cc1CNC(=O)c1cnn2c(C(F)F)cc(C3CC3)nc12,"inconclusive [inhibitor, partial curve]",
C=CCn1c(-c2ccoc2)n[nH]c1=S,"inconclusive [inhibitor, partial curve]",
Cn1c(=N)c(S(=O)(=O)c2ccccc2)cc2c(=O)n3ccccc3nc21,"inconclusive [inhibitor, partial curve]",
COc1cccc(Nc2nc(-c3sc(NC(=O)CC(C)C)nc3C)cs2)c1,,inactive: -13.9%
COC(=O)c1sccc1-c1ccc(C(=O)Nc2ccccc2)o1,"inconclusive [inhibitor, partial curve]",
C[C@@H]1C[C@H]2[C@@H]3CCC4=CC(=O)C=C[C@]4(C)[C@@]3(F)[C@@H](O)C[C@]2(C)[C@@]1(O)C(=O)COP(=O)(O)O,,inactive: -11.9%
COc1ccc(/C=N/NC(=O)c2nc(-c3ccccc3)n(-c3ccccc3)n2)c(O)c1,,inactive: -20.7%
COC(=O)c1c(NC(=O)CC2SC(N)=NC2=O)sc2c1CCCC2 (configuration not stated),,inactive: -14.6%
COc1ccc(C(=O)NNc2ccccc2)cc1OC,"inconclusive [inhibitor, partial curve]",
COC(=O)c1[nH]c2ccc(F)cc2c1NC(=O)CCN1CCN(Cc2ccc3c(c2)OCO3)CC1,"inconclusive [inhibitor, partial curve]",
CCOC(=O)Cc1csc(NC(=O)C2CCCN(S(=O)(=O)c3cnc[nH]3)C2)n1 (configuration not stated),,inactive: -5.48%
COC(=O)C1=C(C(C)=O)C(c2ccc(C)cc2)n2nnnc2N1 (configuration not stated),"inconclusive [inhibitor, partial curve, poor fit]",
COC(=O)c1[nH]c2ccc(Cl)cc2c1NC(=O)CCN1CCOCC1,"inconclusive [inhibitor, partial curve]",
CC(=O)c1ccc(Oc2cc(-c3ccccc3)nc(-c3ccccc3)n2)cc1,,inactive: -11.2%
C=C(C)c1cccc(C(C)(C)NC(=O)N2CCN(C/C=C/c3ccccc3)CC2)c1,,inactive: -9.31%

Structure (SMILES),Potency,"activity change, negative = inhibition"
Cc1ccc(C(=O)CC2(O)C(=O)N(C)c3ccccc32)o1 (configuration not stated),,inactive: -27.2%
Cc1c(C(=O)NCc2ccc3c(c2)OCO3)sc2nc(-c3ccccc3)cn12,"inconclusive [inhibitor, single point]",
O=C(c1ccc2nc3ccc(Cl)cc3c(=O)n2c1)N1CCOCC1,"inconclusive [inhibitor, partial curve]",
CC(=O)C1=C(C)NC(SCC(=O)c2ccc(F)cc2)=C(C#N)C1CC(C)C (configuration not stated),active: 22.4 µM,
COc1c2ccoc2nc2c(OC)c(OC[C@H](O)C(C)(C)O)ccc12,"inconclusive [inhibitor, partial curve]",
Cn1c(-c2ccc(C=O)s2)nc2c3ccccc3c3ccccc3c21,"inconclusive [inhibitor, partial curve]",
O=C(COC(=O)CCC(=O)c1cccs1)NCc1ccco1,,inactive: -9.26%
O=C(Nc1cccc(-c2cn3cccnc3n2)c1)c1cccs1,"inconclusive [inhibitor, partial curve]",
O=c1c2c(nc3cc(-c4cccc(Cl)c4)[nH]n13)CCC2,"inconclusive [inhibitor, partial curve]",
O=C(Nc1nc(N2C(=O)c3ccccc3C2=O)n(-c2ccccc2)n1)c1ccc(F)cc1,,inactive: -6.56%
COc1ccc2c(C)c(Cl)c(=O)oc2c1,"inconclusive [inhibitor, partial curve]",
Cc1cc(C)c2c(N)c(C(=O)NCC3CCCCC3)sc2n1,"inconclusive [inhibitor, partial curve]",
CC(C)CCNC(=O)c1ccc(C2SCC(=O)N2Cc2ccco2)cc1 (configuration not stated),"inconclusive [inhibitor, partial curve]",
O[C@H](CN1CCN(c2cccc(Cl)c2)CC1)C(c1ccccc1)c1ccccc1,,inactive: -8.94%
COc1cc2[nH]c3c(=O)n(CCN4CCCCC4)cnc3c2cc1OC,"inconclusive [inhibitor, partial curve]",
Cc1ccc(-c2n[nH]c(=S)n2Cc2ccccc2)cc1,"inconclusive [inhibitor, partial curve]",
COc1ccc(CCn2c(Br)nc3c2c(=O)[nH]c(=O)n3C)cc1,active: 12.6 µM,
C=CCn1c(SCC(=O)N2CCOCC2)nc2scc(-c3ccco3)c2c1=O,,inactive: -17.6%
CSc1nc(-c2ccco2)cc(-c2ccccc2)c1C#N,"inconclusive [inhibitor, single point]",
CCCn1c(-c2ccc(F)cc2)nc2c(NCCCN(CC)CC)nc(C)nc21,"inconclusive [inhibitor, partial curve]",
CCOC(=O)C1=C(C)NC(SCc2cc(=O)[nH][nH]2)=C(C#N)C1c1cccs1 (configuration not stated),"inconclusive [inhibitor, single point]",
CCOC(=O)CSC1=C(C#N)C(c2ccco2)C(C(=O)Nc2cccc(C(F)(F)F)c2)=C(C)N1 (configuration not stated),"inconclusive [inhibitor, single point]",
COc1ccc(CNc2nc(S(=O)(=O)c3ccccc3)c(Cl)s2)cc1OC,,inactive: -5.92%

Structure (SMILES),Potency,"activity change, negative = inhibition"
Cc1cc(C)c2c(n1)sc1c(=O)[nH]c(SCc3ccccc3)nc12,"inconclusive [inhibitor, partial curve]",
Cc1ccc(C(=O)c2coc3cc([N+](=O)[O-])c(O)c([N+](=O)[O-])c23)cc1,active: 14.1 µM,
O=C(Oc1ccc([N+](=O)[O-])cc1)c1cncc(Br)c1,"inconclusive [inhibitor, partial curve]",
COCCNC(=O)c1c(N)n(-c2ccccc2)c2nc3ccccc3nc12,"inconclusive [inhibitor, partial curve]",
COCC(=O)NCCSc1c(C)[nH]c2ccccc12,"inconclusive [inhibitor, partial curve]",
Cc1ccc(C(=O)c2c(C)oc3c2C(=O)C(=O)c2ccccc2-3)cc1,active: 20 µM,
CC1=NN(c2ccc(Cl)cc2)C(=O)C1C(c1cccc(O)c1)c1c(C)[nH]n(-c2ccc(Cl)cc2)c1=O (configuration not stated),active: 25.1 µM,
Cc1ccc(S(=O)(=O)/C(C#N)=C/c2c(N3CCC(C(N)=O)CC3)nc3c(C)cccn3c2=O)cc1,active: 3.55 µM,
Cc1cc2c(cc1C)NC(CC(=O)NCc1ccccc1)C(=O)N2 (configuration not stated),"inconclusive [inhibitor, partial curve]",
Cc1cccc(NC(=O)Nc2ccc(Oc3c(F)c(F)c(F)c(F)c3F)cc2)c1,,inactive: -6.3%
CCC(C)C1NC(=O)C(CCNCS(=O)(=O)O)NC(=O)C(NC(=O)C(CCNCS(=O)(=O)O)NC(=O)C(NC(=O)C(CCNCS(=O)(=O)O)NC(=O)CCCCC(C)C)C(C)O)CCNC(=O)C(C(C)O)NC(=O)C(CCNCS(=O)(=O)O)NC(=O)C(CCNCS(=O)(=O)O)NC(=O)C(C(C)CC)NC1=O (configuration not stated),,inactive: -7.19%
COc1ccccc1-c1cc(C(=O)NCc2cccs2)no1,active: 14.1 µM,
CCCCCn1cnc2sc(-c3ccccc3)cc2c1=O,"inconclusive [inhibitor, single point]",
Cc1ccccc1-n1cc(C(=O)c2cc(Cl)ccc2O)cc(C#N)c1=O,"inconclusive [inhibitor, partial curve]",
Cc1c(C(=O)Nc2ccc(-c3nnc4n3CCCCC4)cc2)oc2c1ccc1ccccc12,"inconclusive [inhibitor, partial curve]",
COc1ccc(OCC(=O)Nc2cccc3cccnc23)cc1,"inconclusive [inhibitor, single point]",
COc1ccccc1-c1nnc2sc(-c3cnccn3)nn12,active: 25.1 µM,
CC1(C)Cc2c(C#N)c(NCCc3ccccc3)nc(-c3ccco3)c2CO1,"inconclusive [inhibitor, partial curve]",
Cc1noc(C)c1C(=O)N1CCC[C@@]2(CCN(c3cccc(-c4ccccc4)c3)C2)C1,,inactive: -14.5%
O=C(CN1CCN(Cc2ccccc2)C1=O)NCc1ccc(Cl)cc1,"inconclusive [inhibitor, single point]",
CC(=O)C1=C(C)NC(SCC(=O)c2ccc(C)cc2)=C(C#N)C1c1ccco1 (configuration not stated),active: 28.2 µM,

# — PubChem BioAssay AID894 (National Center for Advancing Translational Sciences (NCATS), 2007)
